Measured values published in US20220119490A1 (Genentech, published 2022).

B1: NCR1 extracellular domain (receptor, human, UniProt O76036 22-258, looked up)
chain: QQQTLPKPFIWAEPHFMVPKEKQVTICCQGNYGAVEYQLHFEGSLFAVDRPKPPERINKVQFYIPDMNSRMAGQYSCIYRVGELWSEPSNLLDLVVTEMYDTPTLSVHPGPEVISGEKVTFYCRLDTATSMFLLLKEGRSSHVQRGYGKVQAEFPLGPVTTAHRGTYRCFGSYNNHAWSFPSEPVKLLVTGDIENTSLAPEDPTFPADTWGTYLLTTETGLQKDHALWDHTAQNLLR
notes: extracellular domain; Soluble query, biotinylated and tetramerized with fluorescent streptavidin
B2: NCR1 full-length (co-IP) (receptor, human, UniProt O76036 22-304, looked up)
chain: QQQTLPKPFIWAEPHFMVPKEKQVTICCQGNYGAVEYQLHFEGSLFAVDRPKPPERINKVQFYIPDMNSRMAGQYSCIYRVGELWSEPSNLLDLVVTEMYDTPTLSVHPGPEVISGEKVTFYCRLDTATSMFLLLKEGRSSHVQRGYGKVQAEFPLGPVTTAHRGTYRCFGSYNNHAWSFPSEPVKLLVTGDIENTSLAPEDPTFPADTWGTYLLTTETGLQKDHALWDHTAQNLLRMGLAFLVLVALVWFLVEDWLSRKRTRERASRASTWEGRRRLNTQTL
notes: whole, on cells; also called NCR1-FLAG

What was measured:
[1] = target: T1, SIGLEC8 expressed on cells (human, UniProt Q9NYZ4 17-499); assay: cell surface interaction assay: streptavidin-tetramerized biotinylated ECD on transfected cells, immunofluorescence
T1 construct: whole, on cells; C-terminally tagged in the co-IP; also called SIGLEC8-HA
From the text: (§1) FIG. 3H is a schematic showing the design of the cell surface interaction assay.

[2] = target: T2, SIGLEC6 expressed on cells (human, UniProt O43699 27-453); assay: as above
T2 construct: whole, on cells
From the text: as §1

[3] = target: T3, SIGLEC7 expressed on cells (human, UniProt Q9Y286 19-467); assay: as above
T3 construct: whole, on cells; C-terminally tagged in the co-IP; also called SIGLEC7-HA
From the text: as §1

[4] = target: T4, CD4-HA (human, UniProt P01730); assay: co-immunoprecipitation from co-transfected cells, IP anti-FLAG, western blot
T4 construct: full-length, tagged; partner tested in the NCR1-FLAG co-IP

T3 sequence (Q9Y286 19-467): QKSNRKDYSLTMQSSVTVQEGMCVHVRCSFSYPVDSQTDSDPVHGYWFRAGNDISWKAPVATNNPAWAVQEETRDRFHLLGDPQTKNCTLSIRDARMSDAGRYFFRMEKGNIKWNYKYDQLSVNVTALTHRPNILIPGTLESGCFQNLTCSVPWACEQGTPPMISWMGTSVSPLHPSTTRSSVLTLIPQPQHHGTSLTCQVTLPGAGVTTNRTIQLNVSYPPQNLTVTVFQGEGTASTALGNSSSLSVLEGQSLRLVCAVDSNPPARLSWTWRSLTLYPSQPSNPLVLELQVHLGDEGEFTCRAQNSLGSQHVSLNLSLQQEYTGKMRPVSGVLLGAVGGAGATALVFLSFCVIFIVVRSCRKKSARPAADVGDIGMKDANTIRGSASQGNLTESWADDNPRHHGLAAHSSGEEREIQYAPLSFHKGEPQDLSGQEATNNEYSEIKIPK
T1 sequence (Q9NYZ4 17-499): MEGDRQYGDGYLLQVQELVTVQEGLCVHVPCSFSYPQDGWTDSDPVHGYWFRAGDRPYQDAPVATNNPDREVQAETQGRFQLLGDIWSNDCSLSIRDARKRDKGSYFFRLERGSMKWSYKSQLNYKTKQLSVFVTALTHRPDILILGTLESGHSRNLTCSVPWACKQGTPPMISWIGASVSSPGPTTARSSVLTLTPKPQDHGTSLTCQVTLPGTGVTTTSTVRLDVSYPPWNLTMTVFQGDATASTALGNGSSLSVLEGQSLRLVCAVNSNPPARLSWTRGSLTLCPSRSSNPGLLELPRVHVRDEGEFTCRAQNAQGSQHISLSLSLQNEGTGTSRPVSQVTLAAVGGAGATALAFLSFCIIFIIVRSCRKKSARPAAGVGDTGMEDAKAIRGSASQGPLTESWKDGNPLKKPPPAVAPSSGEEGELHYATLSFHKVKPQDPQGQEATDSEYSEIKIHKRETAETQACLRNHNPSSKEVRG
T2 sequence (O43699 27-453): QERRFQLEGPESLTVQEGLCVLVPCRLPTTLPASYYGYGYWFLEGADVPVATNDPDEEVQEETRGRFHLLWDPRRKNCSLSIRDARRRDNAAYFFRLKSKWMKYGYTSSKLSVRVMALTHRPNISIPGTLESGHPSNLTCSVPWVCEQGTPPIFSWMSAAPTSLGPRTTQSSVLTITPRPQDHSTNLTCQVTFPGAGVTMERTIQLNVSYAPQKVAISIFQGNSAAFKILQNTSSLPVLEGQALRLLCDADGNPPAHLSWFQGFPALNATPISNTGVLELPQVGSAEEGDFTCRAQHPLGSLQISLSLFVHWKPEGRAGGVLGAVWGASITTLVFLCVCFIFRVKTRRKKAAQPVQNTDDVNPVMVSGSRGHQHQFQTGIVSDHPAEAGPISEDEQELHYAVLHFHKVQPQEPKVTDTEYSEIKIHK

| Binder | binding result [1] | binding result [2] | binding result [3] | binding result [4] |
| --- | --- | --- | --- | --- |
| B1 | binds | binds | binds | – |
| B2 | – | – | – | no binding |
